Test results reported in PubChem BioAssay AID1963576 (National Center for Advancing Translational Sciences (NCATS), 2024).
Screen size: about 46,000 compounds; about 60 (0.1%) were called active. Not shown: some 3% with an inconclusive outcome. Calls come from the whole dose curve; as a rule, active = well fitted inhibition curve with a large enough effect; inconclusive = small, poorly fitted or top-dose-only effect; inactive = no such curve, though single readings can be large or run the other way. The list shows a part of the results.

Assay: Primary qHTS assay for Inhibitors of ovarian cancer metastasis using an organotypic tumor microenvironment (TME) model.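 For activity change, negative = inhibition: plate controls were DMSO wells for no effect and tomatine positive control wells for full effect.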 Note: nearly all actives have a fitted effect of over 65% in size.
Settings: SKOV3ip1-GFP adhesion/invasion on 3D omental model, fluorescence; series mostly up to 45.8 µM; activity change, negative = inhibition: at the top concentration
How it was run: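 qHTS, 4-pt dose (0.36-46 umol/L); SKOV3ip1-GFP, 1,200 cells/well, no FBS; primary omental fibroblast/mesothelial co-culture 48 h pre-grown; 2 h RT + 16 h 37 C; PBS wash, 4% PFA; GFP count 488/509 nm.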

Which “activity change, negative = inhibition” value does the source give for Cc1ccc(-n2nc(C)c(C(=O)NCCCN3CCN(c4ccc(F)cc4)CC3)c2-n2cccc2)cc1 here?
Its value is inactive: -18.9%.

With Cc1ccccc1CS(=O)(=O)CC1Nc2ccc(C(=O)NCc3ccc(Cl)cc3)cc2NC1=O (stereo unspecified) as the molecule, how does the “activity change, negative = inhibition” value read?
The value was inactive: 2.76%.

For CCN(CC)CCOC(=O)c1ccc(NC(=O)Cn2ncc3c([nH]c4ccc(C)cc43)c2=O)cc1, which “activity change, negative = inhibition” value is on record?
The value was inactive: 8.76%.

For COc1ccccc1-c1nc2c3c(-c4ccccc4)c(-c4ccccc4)oc3ncn2n1, which “activity change, negative = inhibition” value is on record?
The value was inactive: 0.275%.

For COCCn1c(CNC(=O)c2ccc(C)cc2)nc2cccnc21, which “activity change, negative = inhibition” value is on record?
The value was inactive: -0.0494%.

With COc1ccc(-n2ncc(C(=O)Nc3ccc4c(c3)OCCO4)c2C2CCN(C(=O)OC(C)(C)C)CC2)cc1 as the molecule, how does the “activity change, negative = inhibition” value read?
Its value is inactive: 0.323%.

For CCCSc1ncc(Cl)c(C(=O)Nc2c(C(=O)c3ccc(F)cc3)oc3ccccc23)n1, which “outcome” value is on record?
Its value is “inactive”.

Which “outcome” value does the source give for COc1ccc(CCNC(=O)c2c(C)nn(-c3ccc(F)cc3)c2-n2cccc2)c(OC)c1OC here?
The value was “inactive”.

Which “activity change, negative = inhibition” value does the source give for COc1ccccc1N1CCN(C(=O)Cn2c(=O)n3nc(-c4cccc(C)c4)nc3c3ccccc32)CC1 here?
Its value is inactive: 7.42%.

With Cc1ccc(Nc2sc(C(=O)c3ccccc3)c(N)c2S(=O)(=O)c2ccccc2)c(C)c1 as the molecule, how does the “activity change, negative = inhibition” value read?
The value was inactive: 5.42%.

With Cc1nn2c(=O)cc(COC(=O)c3ccc(NC(=O)c4cccs4)cc3)nc2s1 as the molecule, how does the “activity change, negative = inhibition” value read?
Its value is inactive: -4.44%.

With O=C(Cn1cc(S(=O)(=O)Cc2ccccc2F)c2ccccc21)NCc1ccccc1Cl as the molecule, how does the “activity change, negative = inhibition” value read?
The value was inactive: -6.17%.

For Cc1cc(C)cc(NC(=O)CN2C(=O)CCc3cc(S(=O)(=O)N4CCCCC4)ccc32)c1, which “outcome” value is on record?
Its value is “inactive”.

With CCOC(=O)c1c(NC(=O)C(C)Oc2ccc(Cl)c(C)c2)sc2c1CCCC2 (stereo unspecified) as the molecule, how does the “activity change, negative = inhibition” value read?
Its value is inactive: -22.5%.

With CC(C)CSc1ccccc1NC(=O)c1sc2nc(-c3ccncc3)ccc2c1N as the molecule, how does the “activity change, negative = inhibition” value read?
Its value is inactive: 9.35%.

Which “activity change, negative = inhibition” value does the source give for Cc1ccc(S(=O)(=O)N2CCC(C(=O)Nc3ccc(Oc4ccccc4)cc3)CC2)cc1 here?
The value was inactive: 0.168%.

With O=C(NCCc1ccccc1)c1ccc2c(c1)CCN2S(=O)(=O)c1ccccc1 as the molecule, how does the “activity change, negative = inhibition” value read?
The value was inactive: -2.86%.

For CC(C)Cn1c(=O)c2ccccc2n2c(CCC(=O)Nc3ccc(F)c(F)c3)nnc12, which “activity change, negative = inhibition” value is on record?
Its value is inactive: -0.638%.

With CCN(C(=O)Cn1nc(Cc2ccncc2)c2ccccc2c1=O)c1cccc(C(F)(F)F)c1 as the molecule, how does the “activity change, negative = inhibition” value read?
Its value is inactive: 0.0477%.

For COc1ccc(NC(=O)CCN2CCN(CCO)CC2)cc1, which “activity change, negative = inhibition” value is on record?
The value was inactive: -4.6%.

Which “outcome” value does the source give for CCN(c1cc(C)cc(C)c1)S(=O)(=O)c1nnc(NC(=O)c2ccco2)s1 here?
The value was “inactive”.

Which “activity change, negative = inhibition” value does the source give for Cc1cccc(N2CCN(C(=O)c3ccc(NC(=O)c4nsc5ccccc45)cc3)CC2)c1C here?
Its value is inactive: 3.36%.

With Cc1nc2c(C(=O)NCCc3ccccc3)c[nH]n2c(=O)c1Cc1ccc(F)cc1Cl as the molecule, how does the “activity change, negative = inhibition” value read?
The value was inactive: 8.13%.

For Cc1ccc(NC(=O)Cn2nnc(-c3nc(-c4ccc(Cl)cc4)no3)c2N)cc1C, which “activity change, negative = inhibition” value is on record?
Its value is inactive: 1.37%.

With CCOc1ccc(C(=O)Nc2ccc(-c3nc4ccccc4s3)c(C)c2)cc1OCC as the molecule, how does the “activity change, negative = inhibition” value read?
Its value is inactive: 9.14%.

Which “outcome” value does the source give for COc1ccc2[nH]cc(CCNC(=O)c3cnn(-c4ccccc4Cl)c3C3CCN(C(=O)OC(C)(C)C)CC3)c2c1 here?
The value was “inactive”.

For O=[N+]([O-])c1cc(-c2nc(-c3ccccc3)no2)ccc1NCCc1ccccc1, which “activity change, negative = inhibition” value is on record?
The value was inactive: -2.02%.

For CCOc1ccc(N2CC(c3nc4ccccc4n3Cc3cccc(C)c3)CC2=O)cc1 (stereo unspecified), which “activity change, negative = inhibition” value is on record?
The value was inactive: -1.76%.

For CCCn1c(CCC(=O)Nc2cccc(CC)c2)nc2cccnc21, which “activity change, negative = inhibition” value is on record?
Its value is inactive: -16.7%.

With Cc1ccc2nc(N(Cc3cccnc3)C(=O)c3cccs3)sc2c1 as the molecule, how does the “activity change, negative = inhibition” value read?
Its value is inactive: -3.58%.

For Cc1ccccc1CNC(=O)c1ccc(CS(=O)Cc2ccc(Cl)cc2)o1 (stereo unspecified), which “activity change, negative = inhibition” value is on record?
Its value is inactive: -5.67%.

Which “activity change, negative = inhibition” value does the source give for COc1ccc(-n2c(=O)c3sc4ccccc4c3n(CC(=O)NCc3ccccc3)c2=O)cc1 here?
The value was inactive: 3.38%.

Which “activity change, negative = inhibition” value does the source give for Cc1ccc(CCNC(=O)c2ccc3c(c2)c(C)c(C)n3Cc2ccccc2)cc1 here?
The value was inactive: 3.78%.

With CCOc1ccccc1C(=O)Nc1cc2c(cc1N1CCOCC1)n(C)c(=O)n2C as the molecule, how does the “activity change, negative = inhibition” value read?
Its value is inactive: 1.75%.

Which “activity change, negative = inhibition” value does the source give for Cc1ccc(OCC(=O)Nc2cc(-c3cccc(C)c3)nn2-c2ccccc2)cc1 here?
The value was inactive: -14.8%.

For CCc1nc2c(cnn2-c2ccc(Cl)cc2)c(=O)n1-c1ccc(OC)c(Cl)c1, which “activity change, negative = inhibition” value is on record?
The value was inactive: -6.03%.

For O=C(Nc1cccc(F)c1)[C@@H](c1ccccc1)N1Cc2ccccc2C1=O, which “outcome” value is on record?
The value was “inactive”.

For COc1ccc(Cl)cc1NC(=O)CSc1nc(-c2ccccc2)c2ccccc2n1, which “activity change, negative = inhibition” value is on record?
Its value is inactive: -12.1%.

For CCn1c(CC2C(=O)N(C)c3ccccc32)nc2ccccc2c1=O (stereo unspecified), which “activity change, negative = inhibition” value is on record?
Its value is inactive: -3.33%.

Which “activity change, negative = inhibition” value does the source give for CCOc1ccc(CNC(=O)C2CCN(Cc3cc4ccccc4n3Cc3ccccc3C)CC2)cc1 here?
The value was inactive: -4.47%.

With CN(C)CCOC(c1ccccc1)c1ccccc1 as the molecule, how does the “activity change, negative = inhibition” value read?
The value was inactive: -1.69%.

Which “activity change, negative = inhibition” value does the source give for Cc1nn(C(C)(C)C)c(OC(=O)c2cccc(F)c2)c1Sc1ccccc1 here?
Its value is inactive: -1.88%.

With CCc1ccc(NC(=O)CCCn2nc(C)c3c(C)n(-c4ccccc4)nc3c2=O)cc1 as the molecule, how does the “outcome” value read?
Its value is “inactive”.

With CC(C)CC(C(=O)NCCc1ccccc1)N1Cc2ccccc2C1=O (stereo unspecified) as the molecule, how does the “activity change, negative = inhibition” value read?
Its value is inactive: -16.6%.

For CCCSc1nnc2n(-c3ccc(OC)cc3)c(=O)c3c4c(sc3n12)COC(C(C)C)C4 (stereo unspecified), which “outcome” value is on record?
Its value is “inactive”.

For Cc1c(CNC2CCCCCC2)c(C(=O)O)c(C)n1Cc1ccc(F)cc1, which “activity change, negative = inhibition” value is on record?
The value was inactive: 9.59%.

Which “outcome” value does the source give for CCc1ccc(CN(Cc2ccco2)C(=O)COc2ccc(Cl)cc2C)cc1 here?
The value was “inactive”.

With C[C@H]1C[C@@H]2[C@@H]([C@@H](O)C[C@@]3(C)[C@H]2CC[C@]3(O)C(=O)CO)[C@@]2(C)C=CC(=O)C=C12 as the molecule, how does the “activity change, negative = inhibition” value read?
Its value is inactive: -9.24%.

With CC(=O)Nc1ccc2nc(SCCOc3ccccc3)sc2c1 as the molecule, how does the “activity change, negative = inhibition” value read?
Its value is inactive: 0.319%.

For Cc1ccc(NC(=O)C(=O)NCCCN2CCOCC2)cc1C, which “activity change, negative = inhibition” value is on record?
The value was inactive: 4.78%.

Which “outcome” value does the source give for Cc1cccc(-n2ncc3c(N4CCN(CCO)CC4)ncnc32)c1 here?
The value was “inactive”.

Which “outcome” value does the source give for O=C(Nc1nnc2n1CCS2)c1ccccc1 here?
Its value is “inactive”.

Which “outcome” value does the source give for Cc1ccc(Cl)cc1NC(=O)N1CCc2cc(S(=O)(=O)N3CCC(C)CC3)ccc21 here?
Its value is “inactive”.

With Cc1cc(C)cc(NC(=O)CCS(=O)(=O)c2ccc3c(c2)oc(=O)n3C)c1 as the molecule, how does the “activity change, negative = inhibition” value read?
Its value is inactive: 9.53%.

With O=C(NCc1ccccc1)N1CCc2c(sc3c2CCCC3)C1c1ccccc1 (stereo unspecified) as the molecule, how does the “activity change, negative = inhibition” value read?
Its value is inactive: -26.1%.

For COC(=O)c1ccc2c(=O)n(CCCCCC(=O)NC(C)C)c(=O)[nH]c2c1, which “activity change, negative = inhibition” value is on record?
The value was inactive: 15.7%.

For COc1ccccc1CNC(=O)c1ccc(Nc2nc3ccccc3n3nnnc23)cc1, which “activity change, negative = inhibition” value is on record?
The value was inactive: -4.96%.

With CCOc1ccc(/C=C/c2nc3ccccc3n2S(=O)(=O)c2cccc(Cl)c2)cc1 as the molecule, how does the “activity change, negative = inhibition” value read?
The value was inactive: -14.4%.

Which “outcome” value does the source give for CCOC(=O)c1cc(-c2ccc(OC)cc2)n(CCC(=O)Nc2ccc(OC)cc2OC)c1C here?
Its value is “inactive”.

With CCOc1ccc(C(=O)Nc2ccc3nc(SCC(=O)N(C)c4ccccc4)sc3c2)cc1 as the molecule, how does the “outcome” value read?
Its value is “inactive”.

With CC(C)c1ccc(/C=C(\C#N)c2nc(-c3cc4ccccc4oc3=O)cs2)cc1 as the molecule, how does the “activity change, negative = inhibition” value read?
The value was inactive: 0.503%.
